According to PubChem BioAssay AID624296 (National Center for Advancing Translational Sciences (NCATS), 2012):
Hit rate of the full screen: of about 350,000 compounds, about 9,900 (2.8%) were called active. Inconclusive results, whose numbers are uncertain, are shown with a selection of clear calls. Calls follow the shape of the dose curve; as a rule, active = well fitted activation curve with a large enough effect; inconclusive = small, poorly fitted or top-dose-only effect; inactive = no such curve, though single readings can be large or run the other way. Potencies of inconclusive entries are left out as doubtful fits.

Test: A quantitative high throughput screen for small molecules that induce DNA re-replication in MCF 10a normal breast cells. Also: nearly all actives have a fitted effect of over 50% in size.
Conditions: MCF 10A DNA re-replication, Hoechst nuclear intensity, 48 h; series mostly up to 46.1 µM
Potency is read from the fitted curve at half-maximal effect; tags tell the direction and shape of the fitted curve.

| SMILES | Potency |
| --- | --- |
| Cc1cc(SCc2cccc(C(F)(F)F)c2)nc(=O)[nH]1 | inconclusive [activator, partial curve, poor fit] |
| COc1cc(N/C(N)=N/c2nc(C)cc(C)n2)cc(OC)c1 | inconclusive [activator, partial curve, poor fit] |
| CC(=O)Nc1ccc(SC[C@H](Cc2ccccc2)N2CCN(CCc3ccccc3)CCC2=O)cc1 | inconclusive [activator, full curve, poor fit] |
| O=C1C=C(c2ccccc2)CC(/C=C/c2ccccc2)C1 (centres undefined) | inactive |
| O=C(O)CCC(=O)OCc1c(-c2ccccc2)ncc2ccccc12 | inconclusive [activator, full curve, poor fit] |
| COc1ccccc1NC(=S)NC1CCC(CC2CCC(NC(=S)Nc3ccccc3OC)CC2)CC1 (centres undefined) | inconclusive [activator, partial curve, poor fit] |
| C[C@H](CO)N1C[C@H](C)[C@@H](CN(C)S(=O)(=O)c2cn(C)cn2)Oc2c(NS(=O)(=O)c3ccccc3)cccc2C1=O | inactive |
| C/C(=N\Nc1cc(C)nc(-c2ccccc2O)n1)c1ccccc1 | inconclusive [activator, partial curve, poor fit] |
| N#C/C(=C/c1ccc(Br)o1)C(N)=O | inconclusive [activator, partial curve, poor fit] |
| O=C(NCCN1CCN(c2ccccc2)CC1)Nc1ccccc1Br | inactive |
| O=C(Oc1ccccc1/C=C\C(=O)c1cc2ccccc2o1)c1cccc(F)c1 | active: 18.4 µM |
| COc1ccccc1CC(=O)N1CCOCC1 | inactive |
| CCCCC/C=N/NC(=O)c1[nH]c2ccc([N+](=O)[O-])cc2c1C | inconclusive [activator, partial curve, poor fit] |
| O=C(CCCCCNc1nc(=S)[nH]c2ccccc12)NCCC1=CCCCC1 | inconclusive [activator, single point] |
| O=C(Nc1ccn(Cc2ccccc2F)n1)c1ccc(COc2cc(Cl)ccc2Cl)o1 | inconclusive [activator, single point] |
| COC(CNC(=O)c1ccc2nc(-c3cccs3)c(-c3cccs3)nc2c1)OC | inconclusive [activator, partial curve] |
| Cc1cccc(C2NC(=O)c3ccccc3N2)c1 (centres undefined) | active: 14.6 µM |
| CCOC(=O)c1sc2nc(C(C)C)c3c(c2c1N)CCC3 | active: 3.66 µM |
| CC(=O)C1=C(C)N(CC2CC2)C(=O)N[C@H]1c1cccs1 | inconclusive [activator, full curve, poor fit] |
| Cc1[nH][nH]c(=O)c1C(c1cc([N+](=O)[O-])ccc1O)c1c(C)[nH][nH]c1=O | inactive |
| CCOc1ccc(NCc2ccccc2OCc2cccc(F)c2)cc1 | inconclusive [activator, single point] |
| CCOC(=O)c1ccc(N2CN(CC)CNC2=S)cc1 | inconclusive [activator, partial curve, poor fit] |
| COc1ccc(-n2c(COc3ccc(C)cc3)nnc2SCc2ccc(C#N)cc2)cc1 | inactive |
| CCCn1c(NC(=O)C2CCN(C(=O)c3ccccc3C)CC2)nc2ccccc21 | inconclusive [activator, single point] |
| O=C(Nc1ccncc1)c1ccc(Cl)cc1 | inactive |

| SMILES | Potency |
| --- | --- |
| CCOC(=O)C1(Cc2cccc(OC)c2)CCN(CCO)CC1 | inactive |
| O=C(c1c[nH]c2ccccc12)C(Cl)c1ccccc1 (centres undefined) | active: 23.1 µM |
| O=C(CN1CCN(c2ccc(O)cc2)CC1)Nc1ccc(SC(F)F)cc1 | inconclusive [activator, full curve, poor fit] |
| CN1CCc2nc(SCC(=O)Nc3ccc(Cl)cc3)c(C#N)cc2C1 | inconclusive [activator, single point] |
| O=C(COc1ccc(Nc2ccccc2)cc1)Nc1ccncc1 | inactive |
| CCOc1ccc(S(=O)(=O)N2CCCCC2)cc1NC(=O)CCNC(=O)c1ccco1 | inactive |
| N#CCCN(C(=O)COC(=O)CCc1nc2ccccc2c(=O)[nH]1)c1ccc(F)cc1 | inactive |
| O=C(NCCC1=CCCCC1)C1CC(=O)N(C2CCCCCC2)C1 (centres undefined) | inconclusive [activator, single point] |
| O=C(NC(Cc1ccccc1)C(=O)O)/C(=C/c1cccc(Br)c1)NC(=O)c1ccco1 (centres undefined) | inconclusive [activator, single point] |
| C=CCOCC(O)Cn1c(N2CCCC2)nc2c1c(=O)n(C)c(=O)n2C (centres undefined) | active: 1.3 µM |
| COc1ccccc1NC(=O)N1CCC(NC(=O)C2CCCCC2)CC1 | inactive |
| Cc1cccc(-c2nsc(SCC(=O)c3ccc(Cl)cc3)n2)c1 | inconclusive [activator, single point] |
| CN(Cc1ccccc1)S(=O)(=O)c1ccc(NC(=S)NC(=O)C2CCCCC2)cc1 | active: 23.1 µM |
| Cc1nc2ccc(S(=O)(=O)Nc3cccc(-c4nc5cccnc5s4)c3C)cc2s1 | inactive |
| Cc1nnc(SCC(=O)N/N=C/c2ccc(-c3ccc(C)c(Cl)c3)o2)s1 | inconclusive [activator, single point] |
| CN(Cc1ccccc1)c1nc(N)nc(Cl)c1C=O | inactive |
| COc1ccc2nc(N3C(=O)CNC3=S)sc2c1 | inconclusive [activator, single point] |
| COc1cccc(-c2ncc3ccccc3c2COC(=O)c2cccc(Br)c2)c1 | inconclusive [activator, partial curve, poor fit] |
| O=C(NC1c2ccccc2Oc2ccccc21)c1ccc([N+](=O)[O-])cc1 | inactive |
| N#C/C(=C\c1ccccn1)c1nc2ccccc2s1 | active: 14.6 µM |
| COc1ccccc1N1CCN(/N=C/c2cc([N+](=O)[O-])ccc2Cl)CC1 | active: 0.58 µM |
| N#CC(C#N)=C1C=CC=CN1/C(=C\c1ccco1)C(=O)c1ccccc1 | active: 2.59 µM |
| O=C(N1CCOCC1)n1cnc2ccccc21 | inconclusive [activator, partial curve, poor fit] |
| O=C(O)CSCC(=O)Nc1ccc(-c2nc3ccccc3s2)cc1 | inconclusive [activator, single point] |
| COc1ccccc1CNC(=O)Cc1ccc(Br)cc1 | inconclusive [activator, single point] |

| SMILES | Potency |
| --- | --- |
| Cc1ccc(-c2nnn3c2nc(Cl)c2ccccc23)cc1 | active: 4.11 µM |
| CC(C)COc1ccc(C(=O)NNC(=O)CCC(=O)c2cccs2)cc1 | inactive |
| O=C(NCc1ccncc1)C(=O)Nc1nc(C23CC4CC(CC(C4)C2)C3)cs1 | inconclusive [activator, partial curve, poor fit] |
| Clc1ccc(-c2nc3ccccn3c2CN2CCSCC2)cc1 | inconclusive [activator, single point] |
| O=C(Nc1ccc(C(=O)N2CCC(N3CCOCC3)CC2)cc1)c1ccc(Br)o1 | inactive |
| N/C(Cc1nc2ccccc2s1)=N\O | inconclusive [activator, partial curve, poor fit] |
| O=C(OCC(=O)N1CCC(Cc2ccccc2)CC1)c1ccc[nH]c1=O | inconclusive [activator, single point] |
| CC(C)n1c2ccccc2c2cc([N+](=O)[O-])ccc21 | inconclusive [activator, partial curve, poor fit] |
| O=c1cc(/C=C/c2ccccc2)oc2c1ccc1ccccc12 | active: 20.6 µM |
| Cc1ccc(S(=O)(=O)N2CCOCC2)cc1C(=O)Nc1cc(Cl)ccc1N1CCOCC1 | inactive |
| O=C(NCc1ccccc1)c1ccc(C(=O)NCc2ccccc2)cc1 | inactive |
| CCCC(=O)C1=C(O)C(C(=O)OC)C(C)(C)CC1=Nc1cccc2ccccc12 (centres undefined) | inconclusive [activator, single point] |
| CCn1c(SCC(=O)OC2CCCCC2)nc2ccccc2c1=O | inconclusive [activator, single point] |
| Cc1ncc(CC(=O)n2cc(C(=O)c3cc(F)ccc3O)cn2)s1 | inconclusive [activator, partial curve, poor fit] |
| CCC(Sc1nnnn1-c1ccccc1)C(=O)Nc1nc2ccccc2s1 (centres undefined) | inconclusive [activator, single point] |
| O=C(NNc1ccc(Cl)cc1)c1cccs1 | inconclusive [activator, single point] |
| CSc1nsc(/C=C/Nc2ccc(F)cc2F)c1C#N | inconclusive [activator, full curve, poor fit] |
| COc1cccc2cc(C(=O)NCc3ccc(Cl)cc3)c(=O)oc12 | inconclusive [activator, full curve, poor fit] |
| Cc1ccsc1CNc1ncnc2ccc(-c3c(C)noc3C)cc12 | active: 5.8 µM |
| COc1ccc2cc(C(=O)C3CCCN(C(=O)c4cc(=O)n(C)c(=O)n4C)C3)ccc2c1 (centres undefined) | inconclusive [activator, full curve, poor fit] |
| O=C(O)/C=C/C(=O)Nc1ccccc1SC(F)(F)F | inactive |
| O=C(CSc1nc2ccccc2[nH]1)Nc1ccc(N2CCOCC2)cc1 | inactive |
| CCOc1ccccc1NC(=O)Nc1cccc(C(C)=O)c1 | inactive |
| CC1=CS(=O)(=O)CC1Sc1nc2ccccc2[nH]1 (centres undefined) | inactive |
